In PubChem BioAssay AID1768 (National Center for Advancing Translational Sciences (NCATS), 2009):
Out of some 270,000 compounds screened, about 620 (0.23%) were called active. This list was built around the results that the source calls inconclusive (neither active nor inactive); the mix of calls is not that of the screen. The call rests on the fitted dose curve; in most records, active means well fitted inhibition curve with a large enough effect in the polarisation, with a control signal flat (not every such curve was filed as active); inconclusive means small, poorly fitted or top-dose-only effect, or effect the other way, or a change in a side signal; inactive means no such curve, though single readings can be large or run the other way; the % refers to the polarisation. A potency beside an inconclusive call is a rough fit, not a confirmed value. “Side channel” marks fits to a control or component signal instead of the main read-out.

Molecular target: Menin (Homo sapiens) (UniProt O00255)
Experiment: qHTS Assay for Inhibitors Targeting the Menin-MLL Interaction in MLL Related Leukemias: Competition With Texas Red Labeled MLL-derived Mutant Peptide; on FP activity change, negative = inhibition: % of control where 0% means no effect
Details: fluorescence polarization; FP activity change, negative = inhibition: at 61.6 µM (top of the series)
Potency means the concentration at half of the fitted maximal effect; tags describe the fitted curve by direction and shape or compound fluorescence and quenching.

Chain of UniProt O00255 (O00255 whole entry, looked up): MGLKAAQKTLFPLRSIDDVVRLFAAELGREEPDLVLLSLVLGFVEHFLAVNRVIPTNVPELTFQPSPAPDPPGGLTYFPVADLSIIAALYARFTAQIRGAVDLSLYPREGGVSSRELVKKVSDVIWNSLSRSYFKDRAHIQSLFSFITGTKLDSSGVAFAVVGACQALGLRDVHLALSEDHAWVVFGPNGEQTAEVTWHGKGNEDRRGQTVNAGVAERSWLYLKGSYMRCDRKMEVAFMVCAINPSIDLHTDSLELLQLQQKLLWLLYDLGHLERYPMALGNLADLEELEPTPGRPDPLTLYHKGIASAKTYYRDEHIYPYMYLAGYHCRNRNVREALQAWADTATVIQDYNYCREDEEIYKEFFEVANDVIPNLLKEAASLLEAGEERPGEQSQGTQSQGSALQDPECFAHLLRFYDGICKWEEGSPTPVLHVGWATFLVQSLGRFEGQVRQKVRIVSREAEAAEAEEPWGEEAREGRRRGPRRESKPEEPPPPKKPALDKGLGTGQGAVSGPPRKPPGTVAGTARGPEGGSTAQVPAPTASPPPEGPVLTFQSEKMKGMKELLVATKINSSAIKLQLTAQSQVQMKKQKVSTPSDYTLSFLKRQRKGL

| Compound | Potency | FP activity change, negative = inhibition |
| --- | --- | --- |
| COc1cccc2cc(C(=O)Nc3ccc(F)cc3)c(=Nc3ccc(C(=O)O)cc3)oc12 | inconclusive: 12.6 µM [quencher, side channel, partial curve] | – |
| Cc1ccc(C(=O)Oc2ccc(C(=S)N3CCOCC3)cc2)cc1 | inconclusive: 39.8 µM [inhibitor, single point] | – |
| O=C(Nc1ccc2c(c1)CCC2)c1cnc(Cl)c(Cl)c1 | inconclusive: 11.2 µM [quencher, side channel, partial curve] | – |
| CN(C(=O)c1ccco1)c1nnc(-c2ccc(F)cc2)s1 | inconclusive: 39.8 µM [inhibitor, single point] | – |
| COc1ccccc1-c1c(C#N)c(N)nc2c1CCc1ccccc1-2 | inconclusive: 2.82 µM [fluorescent, side channel, full curve, poor fit] | – |
| CCC(=O)Nc1ccc(S(=O)(=O)N2CCc3ccccc32)cc1 | inconclusive: 31.6 µM [quencher, side channel, single point] | – |
| O=C(N/N=C/c1cc(Br)cc(Br)c1O)c1ccncc1 | inconclusive: 15.8 µM [quencher, partial curve] | – |
| COc1ccc(C2=NN3C(C2)c2ccccc2OC3c2cccs2)cc1 (configuration not stated) | inconclusive: 35.5 µM [quencher, side channel, single point] | – |
| CC(C)(C)c1c(Cl)c(O)c(-c2ccccc2)c(=O)n1-c1ccccc1 | – | inactive: 12.6% |
| Cc1cc2nc3c(c(=O)n2[nH]1)CCCC3 | – | inactive: -3.5% |
| COc1cc2c(cc1NC(=O)CSc1nnnn1-c1ccccc1)oc1ccccc12 | inconclusive: 39.8 µM [inhibitor, single point] | – |
| Nc1c(-c2cccs2)cnc2c(-c3ccc(F)cc3)cnn12 | inconclusive: 10 µM [quencher, side channel, partial curve] | – |
| Cc1c(-c2nc(N)nc(Nc3ccc(F)cc3)n2)oc2ccccc12 | inconclusive: 14.1 µM [quencher, side channel, partial curve] | – |
| COc1cc(CNCCc2ccccc2)cc(Br)c1OCC(=O)Nc1ccccc1C | inconclusive: 10 µM [fluorescent, side channel, partial curve] | – |
| CCCN1CCCc2cc(CN)ccc21 | inconclusive: 20 µM [inhibitor, partial curve, poor fit] | – |
| C=C1c2ccccc2O[C@H](C(=O)OCC)[C@@H]1CCC(C)C (tested in a mixture with another compound) | – | inactive: -17.6% [at 94.6 µM] |
| O=C(Nc1ccc(N2CCCC2)c(Cl)c1)c1ccc([N+](=O)[O-])cc1 | inconclusive: 10 µM [quencher, side channel, partial curve] | – |
